# The list shows a part of the results, in another mix than the full data. At the low end of the ranking, values are background and their order means little.
# Biological target: T1, GST-ANAC092(1-176) (UniProt Q9FKA0)
# T1 sequence: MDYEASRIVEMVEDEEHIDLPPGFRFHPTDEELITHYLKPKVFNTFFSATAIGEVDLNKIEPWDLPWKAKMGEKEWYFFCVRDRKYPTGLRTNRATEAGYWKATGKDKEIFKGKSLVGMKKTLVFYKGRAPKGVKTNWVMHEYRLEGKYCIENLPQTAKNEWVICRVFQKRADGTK
# Assay: universal protein binding microarray (PBM)
# Details: high values mean tight binding; double strand, one strand shown
row,Sequence,binding signal [E-score]
1,CTGTTGAC,0.105
2,CTTAAGGA,0.0455
3,GGGGTCAA,0.0162
4,GTCAAGTA,0.0311
5,CTTGACCC,-0.0425
6,TCAAGTCA,-0.000595
7,ACCGTCAA,0.006
8,GTCAGTCA,-0.032
9,CGTAGACC,-0.0984
10,GTCAAGCA,0.0227
11,CTTAGTCA,0.0279
12,CGTTGACA,-0.0568
13,CCAAGTCA,-0.0709
14,GTTGACTA,0.0254
15,TTAAGGAA,0.11
16,GGCGTCAA,0.0474
17,TAAAGTCA,-0.0308
18,TGACTCAA,-0.0286
19,GTCAACAA,0.0173
20,GTCAATTA,0.00685
21,AAGTCATC,0.00323
22,AAGTCAAT,-0.0132
23,GAGTTGAC,-0.0146

# Biological target: GST-NTL6(1-168) (UniProt Q9SCK6)
# Assay: universal protein binding microarray (PBM)
# Details: high values mean tight binding; double strand, one strand shown
row,Sequence,binding signal [E-score]
1,CTGTTGAC,0.0402
2,GTCAAGAA,-0.0322
3,CTTAAGGA,0.401
4,GGGGTCAA,0.0383
5,GTCAAGTA,0.0257
6,CACGCTAG,-0.0434
7,CTTGACCC,-0.137
8,TCAAGTCA,-0.000985
9,ACCGTCAA,-0.0269
10,ACGCCACG,-0.066
11,GGAGGTAA,0.202
12,CACTCAAC,0.0871
13,CACACGCC,-0.205
14,GTCAGTCA,-0.0534
15,CGTAGACC,-0.115
16,GTCAAGCA,-0.107
17,CTTAGTCA,0.243
18,CGTTGACA,-0.0334
19,GAAGAAAC,0.295
20,CCAAGTCA,-0.00442
21,GCGTCAAC,0.00591
22,GGCGTCAA,-0.0136
23,TATACGCA,-0.0516
24,TAAAGTCA,0.0322
25,GTCAATTA,0.0219
26,ACGCCACC,-0.0332
27,CTTACGCA,0.0871
28,GAGTTGAC,0.0243

# Biological target: T2, GST-ANAC019 NAC domain (UniProt Q9C932)
# T2 sequence: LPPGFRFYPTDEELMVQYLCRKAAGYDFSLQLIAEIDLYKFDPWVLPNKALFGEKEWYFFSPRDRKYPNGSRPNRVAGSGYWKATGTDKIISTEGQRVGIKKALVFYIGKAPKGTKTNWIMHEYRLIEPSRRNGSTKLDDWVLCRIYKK
# Assay: universal protein binding microarray (PBM)
# Details: high values mean tight binding; double strand, one strand shown
row,Sequence,binding signal [E-score]
1,GTCAAGAA,0.0464
2,CTTAAGGA,-0.0726
3,GTCAAGTA,0.0392
4,CTTGACCC,0.00348
5,TCAAGTCA,0.0464
6,GTCAGTCA,-0.0106
7,CGTAGACC,-0.111
8,GGTCAAAA,-0.109
9,GTCAAGCA,0.0105
10,CTTAGTCA,0.0435
11,CGTTGACA,-0.0609
12,CCAAGTCA,0.0173
13,GCGTCAAC,0.0778
14,GTTGACTA,0.079
15,CACGCGAA,-0.000305
16,TTAAGGAA,0.0389
17,GGCGTCAA,-0.113
18,TAAAGTCA,0.0117
19,TGACTCAA,-0.0708
20,GTCAACAA,-0.0462
21,GTCAATTA,0.0034
22,AAGTCATC,-0.0606
23,AAGTCAAT,-0.0466
24,GAGTTGAC,0.0811

# Biological target: T3, GST-ANAC055(1-171) (UniProt Q9LDY8)
# T3 sequence: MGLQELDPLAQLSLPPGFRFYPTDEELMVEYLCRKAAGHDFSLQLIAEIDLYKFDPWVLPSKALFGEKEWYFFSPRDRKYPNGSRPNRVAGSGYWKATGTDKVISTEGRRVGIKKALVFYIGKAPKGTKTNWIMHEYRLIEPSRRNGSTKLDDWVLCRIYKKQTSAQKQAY
# Assay: universal protein binding microarray (PBM)
# Details: transcription factors of Arabidopsis thaliana; high values mean tight binding; most listed sequences are background and not binding sites; double strand, one strand shown
row,Sequence,binding signal [E-score]
1,CTGTTGAC,-0.0491
2,GTCAAGAA,0.0615
3,CTTAAGGA,-0.0364
4,GGGGTCAA,-0.137
5,AGGGAAAG,-0.0598
6,TAGGGAAA,0.0468
7,CTTGACCC,-0.245
8,TCAAGTCA,0.0629
9,ACCGTCAA,0.0155
10,ACGCCACG,0.14
11,GTCAGTCA,-0.104
12,CGTAGACC,0.011
13,GTCAAGCA,-0.0826
14,CTTAGTCA,-0.0331
15,CGTTGACA,-0.114
16,CCAAGTCA,-0.0685
17,GCGTCAAC,0.0308
18,GGCGTCAA,-0.144
19,TAAAGTCA,4.5e-05
20,TGACTCAA,0.0297
21,GTCAATTA,0.0852
22,ACGCCACC,0.0815
23,AAGTCAAT,-0.0121
24,GAGTTGAC,0.0004
